Results from the supplement of paper PMC3334620.
The full ranking holds about 33,000 sequences; the median of “E-score (-0.5 to 0.5)” is about -0.01, and the highest 2% start at about 0.26. The list shows a part of the results.

What follows are sequences tested against Ste12 (UniProt P13574) (assay: PBM E-score (8-mer binding enrichment) (E-score (-0.5 to 0.5)); higher = stronger / more preferred TF binding; most listed sequences are background and not binding sites). Settings: protein concentration: 200 nM; construct: GST-DNA-binding domain.
Outline: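 Universal all-10-mer Agilent arrays, fresh or stripped once, were converted to double-stranded form by primer extension. GST-tagged yeast transcription factors from PURExpress in vitro transcription/translation, full-length or DNA-binding domain only, were applied at about 100-200 nM and detected with fluorescent anti-GST. After masliner normalisation, the Universal PBM Analysis Suite scored each ungapped eight-base word together with its reverse complement by E-score.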

| Sequence | PBM E-score |
| --- | --- |
| ACGGGAAT | -0.119 |
| CTATTGTC | -0.0655 |
| GTTGTGAA | 0.107 |
| CTTAGGAA | 0.122 |
| GAGACGAC | -0.0981 |
| CAAATTAC | 0.0769 |
| CCATACAA | 0.0185 |
| AAAAATCA | 0.254 |
| GTTCAGGA | -0.102 |
| CCGAAAAA | 0.269 |
| TGTTCAAA | 0.17 |
| AGGTGTCA | 0.104 |
| GGGTGCGA | -0.00757 |
| GTCTGGCA | -0.159 |
| AACTTAGG | 0.151 |
| GACGTTAA | 0.0126 |
| TCAACTAA | -0.0445 |
| ACGATAGG | -0.113 |
| AGAGTAAC | -0.0409 |
| ATCATAGG | -0.0846 |
| AACAATCA | 0.139 |
| ATGAATTC | 0.0982 |
| AAACCCAA | 0.349 |
| CAATCACA | -0.0522 |
| TGTGTAAA | 0.166 |

| Sequence | PBM E-score |
| --- | --- |
| ACCGTAGT | -0.0915 |
| GCGTTAGC | -0.0623 |
| ACCCGAAG | 0.017 |
| CACTTTCC | -0.0588 |
| AGATTGGC | -0.109 |
| AAGGCCGC | -0.0881 |
| CCCGCTCC | -0.125 |
| CAGGCACG | -0.0922 |
| AAGTTGCG | 0.148 |
| AATGTTGC | 0.0457 |
| ATAGCAAT | 0.0679 |
| CGGGGTTA | 0.203 |
| GGTTGCGA | -0.00474 |
| GGTAGCCA | -0.0713 |
| CCCAGGGG | -0.23 |
| ACAAGACT | 0.0348 |
| TATCGAGA | 0.0306 |
| AGAGCAGG | -0.0406 |
| GAAAGACC | -0.00946 |
| CGACTCTC | -0.103 |
| ACGGTTCG | -0.0901 |
| GCTAGAGA | -0.0888 |
| AAAATAGG | 0.171 |
| CCGGCGCC | 0.1 |
| GAGATGAA | 0.156 |

| Sequence | PBM E-score |
| --- | --- |
| CTTTCATA | 0.205 |
| AAGCCTCC | -0.186 |
| GTGACAAC | 0.114 |
| TAGGGAAA | 0.133 |
| CTGTGTAA | 0.0461 |
| AATCATAT | 0.0297 |
| CAGGATAC | -0.0863 |
| ATGACCAG | 0.0602 |
| AGATGAAC | 0.098 |
| ACGTTCGA | -0.0755 |
| AAAATGTA | 0.183 |
| CTATATCA | 0.145 |
| GGTGGACA | -0.197 |
| AAATTCGG | 0.091 |
| ATAGAGTG | -0.0838 |
| CTTGATTA | 0.0433 |
| GCGGATAA | 0.23 |
| AACTCAGT | -0.0577 |
| GACCAAAA | 0.18 |
| GAACCATC | -0.0828 |
| CACGCGGA | 0.047 |
| CCCTGACG | 0.0297 |
| CCCGGGGC | 0.0221 |
| ATGTACAC | 0.0121 |
| GGGCTCCA | -0.182 |

| Sequence | PBM E-score |
| --- | --- |
| CATATTCC | -0.0541 |
| CAGGTACA | -0.101 |
| ATCTATAA | 0.0201 |
| AAAGCATA | 0.0128 |
| GCTCTTAA | 0.0316 |
| GGGGTAGA | 0.0991 |
| CCTGTGAA | 0.182 |
| GATAGTCA | -0.00874 |
| GTATGGAA | 0.0049 |
| AATAGCTA | 0.0182 |
| CCACCCAG | 0.164 |
| CCGCCAAA | 0.131 |
| AACTACAC | -0.0557 |
| TACACAAA | 0.209 |
| ATTCGCCA | 0.0486 |
| CTGACCAC | -0.00207 |
| GCCAAGAC | -0.0751 |
| CTTCGAGC | -0.0108 |
| AAAATCTC | 0.119 |
| GAGCTTAC | -0.249 |
| GGAGGCCC | -0.275 |
| CGCCGGGC | 0.0988 |
| AAGTCGCT | -0.0711 |
| ATGCTAAT | -0.00204 |
| CATTAAAA | 0.27 |

| Sequence | PBM E-score |
| --- | --- |
| CGTGATGA | -0.00704 |
| GCTAACCA | -0.102 |
| AGCCCTAG | -0.117 |
| CGGCTCAA | -0.0208 |
| TCACCTCA | 0.0737 |
| TATTGTAA | 0.156 |
| GGATTCAC | 0.0683 |
| ATTGGCTG | -0.0316 |
| AGGCCTCC | -0.15 |
| GCATGTTA | 0.0274 |
| GAAAGGTC | -0.0999 |
| CGTGTTAG | -0.0923 |
| ACCCTCTG | -0.0888 |
| CTTTGCGA | 0.169 |
| AAGGCCTA | -0.215 |
| ACTTGACG | -0.0478 |
| GAGAGGCC | -0.191 |
| AATTGTGT | 0.0961 |
| GGTTGATA | 0.0744 |
| AGGACGAG | -0.12 |
| ACTCATAT | -0.0197 |
| AAAGTGGA | -0.0616 |
| CGCGCTTA | 0.0716 |
| CATTTACA | 0.138 |
| CTAGTTTA | 0.0197 |

| Sequence | PBM E-score |
| --- | --- |
| CCGACACC | -0.159 |
| ATGAAATG | 0.0682 |
| GGCTGAAC | 0.031 |
| GCGTCTTA | -0.00211 |
| GTACGTGA | 0.0101 |
| AGGAAGTG | 0.0384 |
| CTAAAGCC | -0.207 |
| ATAAGTTG | 0.114 |
| ACGATGCC | -0.241 |
| ATCAACAA | 0.251 |
| ATACGGTG | 0.06 |
| AACTACCT | 0.157 |
| GCGCAACA | -0.0976 |
| CCGGTAAC | 0.103 |
| ACGACGTA | -0.22 |
| ACTATACT | 0.15 |
| TTCCCCAA | 0.112 |
| CAAGTTAA | -0.00965 |
| CAAAGGCA | -0.0872 |
| TCGTCCAA | 0.0146 |
| ATGGGAAT | -0.202 |
| GCATGCCA | -0.196 |
| CAGCATCA | -0.203 |
| GCCATTTA | -0.0394 |
| TATTTTGA | 0.185 |

| Sequence | PBM E-score |
| --- | --- |
| AAACGACT | -0.0254 |
| CTATCATA | 0.114 |
| CTGTTCAA | 0.0529 |
| CACGCTTC | -0.188 |
| CCCATTTC | -0.108 |
| GTGCGCTA | 0.122 |
| AAATAGCT | -0.0088 |
| CTGCATAC | -0.189 |
| ATACTTTA | 0.225 |
| ATCTCTAG | -0.0496 |
| CCGTCCCC | -0.0491 |
| CCAGGCCA | -0.168 |
| AATGTTCG | -0.034 |
| TAGACAAA | 0.0937 |
| AACAATGG | 0.105 |
| GCGAATAC | -0.0391 |
| AACTCAAT | 0.0764 |
| AACTGGCA | -0.0435 |
| CCGCATGC | 0.00231 |
| CCCAGCAG | 0.0304 |
| CGGTACCC | -0.115 |
| CAGATAAA | 0.146 |
